This note sets out measurements from PubChem BioAssay (NCI).

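Where inhibition never reached the appropriate level, the endpoint shown equals the highest concentration tested. Otherwise, values were interpolated linearly from a five-concentration, 48-hour dose response in 96-well plates. GI50 marks 50% less growth. Definition used: TGI = concentration required for complete inhibition of growth.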

The assay relates to NCI-H322M lung. Briefly: NCI-60 cell line screen, 48 h.

Regarding `CCOC(=O)C1=C(OC(OCC)C(CC)[Se]c2ccccc2)CCC1` (stereo not drawn), the TGI was above 100 µM.

`Cc1cc(-c2nc3c(F)cccc3s2)ccc1N` showed a TGI above 100 µM.

In the case of `O=C(O)CSc1n[nH]c(-c2ccco2)n1`, the TGI was above 100 µM.

Take `COc1ccc(-c2csc(Nc3cccc(-c4csc(C)n4)c3)n2)cc1`: the GI50 was 0.005 µM and the TGI came out at 8.7 µM.

Turning to `CCOC(=O)[C@@H]1CSC(CC)=C(C(=O)O)N1`, the GI50 is above 100 µM and the TGI was above 100 µM.

`CCOC(=O)C(=CNc1ccc(F)c(F)c1)C(=O)OCC` returned a TGI above 100 µM.

`CCOP(=O)(O)C(Nc1ccc(N=Nc2ccccc2)cc1)c1cccc(C(Nc2ccc(N=Nc3ccccc3)cc2)P(=O)(O)OCC)c1` (stereo not drawn) displayed a TGI above 100 µM.

Consider `C[C@H]1CC[P+](C)(c2ccccc2)C1` (stereo partly drawn), for which the TGI was above 100 µM.

In the case of `COc1ccc(/C=C\c2cc(OC)c(OC)c(OC)c2)cc1`, the TGI was above 100 µM.

Regarding `COc1cc(/C=C2\SC(N3CCCCC3)=NC2=O)ccc1OCCCCCCOc1ccc(/C=C2\SC(N3CCCCC3)=NC2=O)cc1OC`, the GI50 is 11.7 µM and the TGI amounted to 43.2 µM.

As for `C=C1C[C@@H]2O[C@H]3[C@H]4[C@@H](CC[C@@](C)(OC(=O)CCC)[C@H]42)[C@@H](C)C(=O)O[C@@]3(C)CC[C@H]1OO`, the GI50 was 23.5 µM and the TGI came to 54 µM.

In turn, `CC(=O)OCC1OC(n2c3c(cc(C#N)c2=S)CCCC3)C(OC(C)=O)C(OC(C)=O)C1OC(C)=O` (stereo not drawn) had a TGI above 100 µM.

With `O=[N+]([O-])c1cccc2nccc(NCCN3CCOCC3)c12`, the TGI was above 39.5 µM.

Molecule `CN(CCc1ccccn1)c1ccc2c(c1)C(=O)c1ccccc1-2` registered a TGI above 100 µM.

With `CN(C)c1ccc(-c2ccc(-c3ccc(C(=N)N)cn3)o2)cc1`, the GI50 is 1.44 µM and the TGI was 2.85 µM.

Molecule `CCSC1=N/C(=C\c2ccco2)C(=O)N1` yielded a TGI above 100 µM.

`COc1ccc2nc3cc(Cl)ccc3c(NCCCN3CCN(CCCNc4ccc5nnn6c7ccccc7c(=O)c4c56)CC3)c2c1`: the TGI is above 25 µM.

`CC(C)[Si]1(C(C)C)OCC2OC(n3ccc(=O)[nH]c3=O)C([Se]c3ccccc3)C2O[Si](C(C)C)(C(C)C)O1` (stereo not drawn): the TGI turned out to be 27.1 µM.

As for `Oc1ccccc1C=Nc1ccc(-c2nc3ccccc3s2)cc1`, the TGI was above 100 µM.

Regarding `Cc1cc(C)nc(NS(=O)(=O)c2ccc(Nc3c4ccccc4nc4c(C(=O)NCCN(C)C)cccc34)cc2)n1`, the TGI amounted to 19.3 µM.

Turning to `Nc1ccccc1C(=O)N=Nc1c(O)[nH]c2ccccc12`, the TGI was above 100 µM.

In turn, `CC(Oc1ccc(Cl)cc1Cl)C(=O)NN1C(=O)CC(=O)N(c2ccccc2)C1=S` (stereo not drawn) gave a TGI above 100 µM.

With `CCCCCCCCCCCCCCCCNC(=O)/C(=C\c1ccc(Cl)c(Cl)c1)NC(=O)c1ccccc1`, the TGI was above 100 µM.

`O=[N+]([O-])c1ccc(N=Nc2c(O)[nH]c3ccccc23)c([N+](=O)[O-])c1`: the TGI was above 100 µM.

The molecule `O=C1OC(=O)C([Se]c2ccccc2)=C1[Se]c1ccccc1` displayed a TGI above 100 µM.

For the molecule `CCCCCCCCC(O)c1ccc(/C=C\C(O)CCCC(=O)O)s1` (stereo not drawn), the TGI was above 100 µM.

`COC(=O)/C=C\C(C#N)(C#N)N=Cc1ccc(OC)cc1` displayed a TGI above 58.7 µM.

Regarding `C=CC(=O)Nc1cc2c(Nc3ccc(F)c(Cl)c3)ncnc2cc1C#CC(C)(C)N1CCN(C)CC1`, the GI50 is 0.23 µM and the TGI turned out to be 4.48 µM.

Take `Nc1nc(SCC(=O)c2ccc(Br)cc2)c2[nH]cnc2n1`: the TGI is above 100 µM.

In the case of `C1=CC2CCC1CN2CCC1CNc2ccccc21` (stereo not drawn), the TGI is above 100 µM.

`O=C1CSC(c2ccccc2O)N1c1ccc(-n2c(-c3ccccc3)nc3ccccc3c2=O)cc1` (stereo not drawn) returned a TGI above 100 µM.

With `O=c1c(Sc2c(SCSc3cnc4ccccc4c3Sc3c[nH]c4ccccc4c3=O)cnc3ccccc23)c[nH]c2ccccc12`, the TGI is above 100 µM.

The molecule `CC(Cn1c2c(c3cc(O)ccc31)CCc1ccc(O)cc1-2)N(C)C` (stereo not drawn) had a TGI of 32.2 µM.

The molecule `COc1ccccc1-c1c(C#N)c(N)[nH]c(=S)c1C#N` came in with a TGI above 100 µM.

The molecule `Cc1ccc(S(=O)(=O)N/N=C2/CCC3(O)CC2(C)CCC2[C@H]3CC2(C)C)cc1` (stereo partly drawn) registered a TGI above 100 µM.

Regarding `COc1cc(OC)c2c(=O)c3cccc(C)c3n(C)c2c1`, the TGI is above 100 µM.

As to `O=[N+]([O-])/C(Cl)=C(/C(Cl)=C(Cl)Cl)N1CCOCC1`, the TGI was found to be 32.2 µM.

`CCOC(=O)c1c(CN2CCN(C)CC2)nc2ccc(Cl)cc2c1-c1ccccc1`: the GI50 is 12.5 µM and the TGI was determined as 25.8 µM.

Regarding `CCOc1ccc(NC(=O)C(=O)Nn2c(N)nnc2N)cc1`, the TGI is above 100 µM.

For `COc1cc2cc(C(=O)N3CC(CCl)c4ccc([N+](C)(C)Cc5ccccc5[N+](=O)[O-])cc43)[nH]c2c(OC)c1OC` (stereo not drawn), the TGI was above 100 µM.

`O=c1oc2c3ccc4ccccc4c3n(CCN3CCCCC3)c2c2ccccc12` gave a TGI above 100 µM.
